Experimental data taken from PubChem BioAssay AID1347073 (National Center for Advancing Translational Sciences (NCATS), 2019).
The whole screen tested about 45,000 compounds, of which about 200 (0.44%) were called active. Inconclusive results (about 7%) are left out. The call rests on the fitted dose curve; in most records, active means well fitted activation curve with a large enough effect; inconclusive means small, poorly fitted or top-dose-only effect; inactive means no such curve, though single readings can be large or run the other way. This is one part of the list.

Assay: qHTS of TDP-43 Inhibitors: NCGC Sytravon Library Screen; further: 0% is about no effect; nearly all actives have a fitted effect of over 55% in size
Conditions: yeast TDP-43 toxicity rescue, BacTiter-Glo growth, 24 h; series mostly up to 46.1 µM; growth rescue (activation): at the top concentration
Method in brief: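 TDP-43-expressing yeast, pregrown in raffinose, seeded at OD600 0.02 in galactose medium with compound for 24 hr at 30 deg C. Growth read by BacTiter-Glo luminescence, so rescue of toxicity appears as activation.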

Q: Which “growth rescue (activation)” value does the source give for `O=C(O)Cc1ccc(NC(=O)c2cccc(NC(=O)c3ccco3)c2)cc1` here?
A: inactive: -5.05%

Q: For `Cc1oc(-c2cccc(C(F)(F)F)c2)nc1CN1CCOCC1`, which “growth rescue (activation)” value is on record?
A: inactive: 15.4%

Q: With `O=S(=O)(NCCN1CCOCC1)c1ccc(Oc2ccccc2Cl)cc1` as the molecule, how does the “growth rescue (activation)” value read?
A: inactive: -4.87%

Q: Which “growth rescue (activation)” value does the source give for `COc1cccc(N2CCN(C(=O)CCNS(=O)(=O)c3ccc4c(c3)c(=O)n(C)c(=O)n4C)CC2)c1` here?
A: inactive: 3.12%

Q: Which “growth rescue (activation)” value does the source give for `Cc1ccc(-c2cnc(C(O)c3ccc(Cl)cc3C)[nH]2)cc1` (centres undefined) here?
A: inactive: 11.8%

Q: Which “growth rescue (activation)” value does the source give for `COCCn1c(SCC#N)nnc1-c1ccc([N+](=O)[O-])cc1` here?
A: inactive: 11.9%

Q: For `CC(=O)N(Cc1ccccc1)c1ccccc1C(=O)O`, which “growth rescue (activation)” value is on record?
A: inactive: 10.9%

Q: With `Cc1cccc(C)c1NC(=O)CSc1nnc(C2CCCCC2)o1` as the molecule, how does the “growth rescue (activation)” value read?
A: inactive: 36.9%

Q: Which “growth rescue (activation)” value does the source give for `O=C(O)CCC(=O)N1N=C(c2ccccc2)CC1c1cccs1` (centres undefined) here?
A: inactive: -12%

Q: For `Cc1ccc(CNC(=O)C2CCC(CNS(=O)(=O)c3cccs3)CC2)cc1` (centres undefined), which “growth rescue (activation)” value is on record?
A: inactive: 3.08%

Q: With `COc1ccccc1CNC(=O)CN1C(=O)c2cccnc2Oc2ccccc21` as the molecule, how does the “growth rescue (activation)” value read?
A: inactive: 11.9%

Q: With `CCOC(=O)C1(C)CCCN(C(=O)c2ccc(F)c(Cl)c2)C1` (centres undefined) as the molecule, how does the “growth rescue (activation)” value read?
A: inactive: 6.28%

Q: For `COc1ccccc1NC(=O)CC(=O)Nc1ccccc1OC`, which “growth rescue (activation)” value is on record?
A: inactive: 1.48%

Q: Which “growth rescue (activation)” value does the source give for `COc1ccc(NC(=O)N(Cc2cc3ccc(OC)cc3[nH]c2=O)CC2CCCO2)cc1` (centres undefined) here?
A: inactive: -9.33%

Q: Which “growth rescue (activation)” value does the source give for `CCn1cc(C(=O)O)c(=O)c2cc(F)c(N3CCN(S(=O)(=O)c4ccc(NC(C)=O)cc4)CC3)cc21` here?
A: inactive: 5.25%

Q: Which “growth rescue (activation)” value does the source give for `C=CCOc1ccc(/C=C2/C(=O)ON=C2C)cc1OC` here?
A: inactive: 25.8%

Q: For `CCOc1ccc(CNC(=O)C2CCN(C(=O)c3sccc3-n3cccc3)CC2)cc1`, which “growth rescue (activation)” value is on record?
A: inactive: 11.4%

Q: With `Cc1cccc(/C(N)=N/OC(=O)c2ccoc2C)c1` as the molecule, how does the “growth rescue (activation)” value read?
A: inactive: -14%

Q: For `CN(C)c1ccc(/C=C(\C#N)c2ccccn2)cc1`, which “growth rescue (activation)” value is on record?
A: inactive: -19.7%

Q: For `O=C(CSCc1ccccc1)Nc1ccccc1C(=O)Nc1ccc(C(=O)O)cc1`, which “growth rescue (activation)” value is on record?
A: inactive: 1.2%

Q: Which “growth rescue (activation)” value does the source give for `N#CC1=C(N)Oc2ccc3ccccc3c2C1c1cccnc1` (centres undefined) here?
A: inactive: 3.92%

Q: For `COc1ccc(-c2nnc(SC)o2)c(OC)c1`, which “growth rescue (activation)” value is on record?
A: inactive: 11.5%

Q: For `CCOC(=O)c1c(CSc2ccc(C)cc2)oc2ccc(O)cc12`, which “growth rescue (activation)” value is on record?
A: inactive: -89.7%

Q: With `OCCNCc1cc(Br)ccc1OCc1ccccc1Cl` as the molecule, how does the “growth rescue (activation)” value read?
A: inactive: 19.5%

Q: With `COC(=O)C(NS(=O)(=O)c1ccc(N2CCCC2=O)cc1)c1ccccc1` (centres undefined) as the molecule, how does the “growth rescue (activation)” value read?
A: inactive: 12.7%

Q: For `O=C(/C=C\c1cn(-c2ccccc2)nc1-c1ccccc1)Nc1nccs1`, which “growth rescue (activation)” value is on record?
A: inactive: 6.87%

Q: Which “growth rescue (activation)” value does the source give for `COc1cccc(N(C(=O)CS(=O)CC(=O)Nc2ccc(F)cc2)C(C(=O)NC2CCCCC2)c2cccs2)c1` (centres undefined) here?
A: inactive: 12.7%

Q: With `CCn1c(COc2cccc(OC)c2)nnc1SCC(=O)NC1CCCC1` as the molecule, how does the “growth rescue (activation)” value read?
A: inactive: -10.6%

Q: With `COc1ccc(OC)c(C(=O)CSc2nnc(-c3cccnc3)n2C)c1` as the molecule, how does the “growth rescue (activation)” value read?
A: inactive: -1.69%

Q: Which “growth rescue (activation)” value does the source give for `O=C(COC(=O)/C=C/c1nc2ccccc2s1)Nc1cccc2ccccc12` here?
A: inactive: -2.33%

Q: For `Cc1ccccc1OCC(=O)N(CC(C)C)c1c(N)n(CC(C)C)c(=O)[nH]c1=O`, which “growth rescue (activation)” value is on record?
A: inactive: 1.48%

Q: With `O=C(COC(=O)c1cc(S(=O)(=O)N2CCOCC2)ccc1Cl)Nc1ccccc1Cl` as the molecule, how does the “growth rescue (activation)” value read?
A: inactive: 51%

Q: Which “growth rescue (activation)” value does the source give for `CCC(C)c1ccccc1NC(=O)c1[nH]c(C)c(C(C)=O)c1C` (centres undefined) here?
A: inactive: -5.55%

Q: For `O=C(O)CNC(=S)N(Cc1cccs1)C1CCCCC1`, which “growth rescue (activation)” value is on record?
A: inactive: 1.3%

Q: For `CNCCCOc1ccc2c(c1)CCC2`, which “growth rescue (activation)” value is on record?
A: inactive: 6.68%

Q: With `COc1cccc(-c2ccc3nccn3c2)c1` as the molecule, how does the “growth rescue (activation)” value read?
A: inactive: 17.2%

Q: Which “growth rescue (activation)” value does the source give for `Cc1ccc(C(=O)N/N=C/C=C/c2ccccc2)cc1` here?
A: inactive: -17.1%

Q: Which “growth rescue (activation)” value does the source give for `COc1ccccc1N1CCN(C2CCCN(S(=O)(=O)c3ccccc3)C2)CC1` (centres undefined) here?
A: inactive: -10.6%

Q: Which “growth rescue (activation)” value does the source give for `COc1ccc(-c2cc(C(=O)Nc3ccc(F)cc3F)no2)cc1` here?
A: inactive: 12.2%

Q: For `COc1ccc(NC(=O)COC(=O)CNS(=O)(=O)c2ccc(F)c(F)c2F)cc1OC`, which “growth rescue (activation)” value is on record?
A: inactive: -1.81%

Q: For `CN1CCCC(OC(=O)c2ccc(Cl)cc2)C1` (centres undefined), which “growth rescue (activation)” value is on record?
A: inactive: -1.52%

Q: With `O=C(O)CCc1ccc(S(=O)(=O)Nc2ccc(OCc3ccccc3)cc2)cc1` as the molecule, how does the “growth rescue (activation)” value read?
A: inactive: -3%

Q: For `Cc1ccc(N=Cc2nc(-c3ccc(C)cc3)oc2O)cc1`, which “growth rescue (activation)” value is on record?
A: inactive: 3.57%

Q: Which “growth rescue (activation)” value does the source give for `O=C(CCc1ccc(Oc2cc([N+](=O)[O-])cc([N+](=O)[O-])c2)cc1)Nc1cccc(Cl)c1` here?
A: inactive: 10.9%

Q: Which “growth rescue (activation)” value does the source give for `CCc1cccc(CC)c1-n1c(SCC(=O)N2CCCc3ccccc32)nc(O)cc1=O` here?
A: inactive: 20.7%

Q: With `c1c2c(cc3sc(N4CCCCC4)nc13)OCO2` as the molecule, how does the “growth rescue (activation)” value read?
A: inactive: 10.7%

Q: For `COCCNC(=O)Cn1nc(Cc2ccncc2)c2ccccc2c1=O`, which “growth rescue (activation)” value is on record?
A: inactive: -11.2%

Q: With `CCOC(=O)C1CCN(c2nc3ccccc3nc2C(C#N)C(=O)OC(C)COC)CC1` (centres undefined) as the molecule, how does the “growth rescue (activation)” value read?
A: inactive: 6.73%

Q: With `COCCN(CCOC)Cc1c(O)ccc2c1O/C(=C\c1ccco1)C2=O` as the molecule, how does the “growth rescue (activation)” value read?
A: inactive: -20%

Q: Which “growth rescue (activation)” value does the source give for `Cc1cc(OCC(=O)NC(C)c2ccccc2)ccc1[N+](=O)[O-]` (centres undefined) here?
A: inactive: -3.53%

Q: For `COC(=O)c1ccc(Cn2nnc3sc4c(c3c2=O)CCCC4)cc1`, which “growth rescue (activation)” value is on record?
A: inactive: 16.2%

Q: Which “growth rescue (activation)” value does the source give for `O=C(CN1C(=O)CCC1=O)c1ccc(-c2ccccc2)cc1` here?
A: inactive: 13.5%

Q: For `CCNC(=O)C1(C)CCN(C(=O)c2ccc(N(C)C)cc2)C1` (centres undefined), which “growth rescue (activation)” value is on record?
A: inactive: 8.08%

Q: For `CC1=NCCN1S(=O)(=O)c1cccc([N+](=O)[O-])c1`, which “growth rescue (activation)” value is on record?
A: inactive: -8.28%
